Laboratory results as given in the supplement of paper PMC4466236.
In all, about 33,000 sequences were measured (“E-score (dimensionless, -0.5 to 0.5)”: median about -0.058, highest 2% from about 0.35 on). The list shows a part of the results.

What follows are sequences tested on MvaT (assay: PBM 8-mer E-score (mean of HK and ME arrays) (E-score (dimensionless, -0.5 to 0.5)); higher = stronger relative binding preference; most listed sequences are background and not binding sites).
In short: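 Reported values are rank-based E-scores, taken as the mean of two universal arrays and parsed with a custom script. Each 8-mer score falls between -0.5 and 0.5. The arrays, ME and HK, were double-stranded 60-mers with a constant 25-mer primer region and a variable 35-mer region covering all 8-mers. They were probed, by an earlier protocol, with full-length P. aeruginosa MvaT carrying an N-terminal glutathione S-transferase fusion.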

Row | Sequence | PBM 8-mer E-score
1 | GATTAGGA | -0.0421
2 | CTCAGGAA | -0.116
3 | GCGCTCGA | -0.148
4 | TAATTCTA | 0.278
5 | CTCCTGGA | -0.132
6 | GCCGGACA | -0.046
7 | ACGTCGGG | -0.0915
8 | CCGCGTTA | -0.194
9 | ATCCAGTG | -0.138
10 | CCACTTGC | -0.228
11 | ACCCATCT | 0.00798
12 | CAAGAACA | 0.0124
13 | ATCTCCGC | -0.113
14 | GGTATGTA | 0.0752
15 | GAGATGGA | -0.187
16 | ACGAGGGA | -0.253
17 | CGCAAAGC | -0.162
18 | CTCCGAAA | -0.00856
19 | AAATGAAA | 0.28
20 | AGGCTTAA | -0.0836
21 | CGTCGGAA | 0.0575
22 | CGACTCGA | -0.233
23 | CAATGAGA | -0.0714
24 | ACGGTTAT | 0.222
25 | AAATTGGA | 0.158

Row | Sequence | PBM 8-mer E-score
26 | ACCAGGTA | -0.0271
27 | AACGATTG | -0.0259
28 | AGGTAGTG | -0.0636
29 | CCTTGGAG | -0.213
30 | ACCGTCCT | -0.185
31 | GAGTGTGA | 0.14
32 | CGGCCAAC | -0.151
33 | ATCCCTAA | -0.0446
34 | GCAGCGGC | -0.233
35 | AAAGCCGC | -0.157
36 | CGGAGGGA | -0.311
37 | GAGAAACA | -0.0137
38 | CCGTTGCG | -0.127
39 | CACACGTA | -0.00571
40 | CCATAATA | 0.287
41 | CCCTGAGG | -0.195
42 | CAGTGATC | -0.172
43 | AAAAGGTT | 0.102
44 | ATTCATCC | 0.0328
45 | AGATAGTC | -0.0708
46 | CGTATTAG | 0.0961
47 | TCTAGAGA | -0.00944
48 | GGCTGAAA | -0.161
49 | CTCTCGCC | -0.191
50 | AGATCGAA | 0.0212

Row | Sequence | PBM 8-mer E-score
51 | GAATTACA | 0.175
52 | GCGGGAAA | -0.0411
53 | ATGTCGGA | -0.0433
54 | CCCATCGC | -0.106
55 | GTTTCTTA | 0.104
56 | CGTGACCC | -0.258
57 | AGTGGCCG | -0.152
58 | TGTGATAA | 0.186
59 | AAGTGCAA | 0.205
60 | TCGCCCAA | -0.165
61 | ATGAATAC | 0.145
62 | CAACCGGG | -0.23
63 | TGATTCAA | 0.0557
64 | CACATGGA | 0.00819
65 | CTCATAGA | -0.032
66 | TATACTGA | 0.284
67 | ACAAAGTG | 0.0626
68 | ACAATCGA | 0.0252
69 | ACGCGCGG | -0.234
70 | ATTATTAA | 0.446
71 | CACGCCGG | -0.154
72 | TGAAAAAA | 0.15
73 | ATGAGGAC | -0.0363
74 | GCCATCGC | -0.219
75 | CGTTTGCC | -0.163

Row | Sequence | PBM 8-mer E-score
76 | AGATAATG | 0.295
77 | GGACTCTA | -0.281
78 | ACGGCGAG | -0.181
79 | GCATACAA | 0.247
80 | AACGGGAA | 0.108
81 | ACGTGTAG | -0.148
82 | ACCACGTG | -0.188
83 | GCATCCCC | -0.212
84 | AATGAAGT | 0.183
85 | TCAAATGA | 0.116
86 | ATATCGGG | 0.0544
87 | AGTCACCC | -0.143
88 | CGTCGGTA | -0.176
89 | GAATAAAA | 0.354
90 | ACCAGCGC | -0.212
91 | GCTTGATA | 0.0512
92 | TCCTAAGA | -0.0438
93 | ATATGATG | 0.261
94 | GTTGTAAA | 0.205
95 | AGGGCAGC | -0.326
96 | AAACATGG | 0.0524
97 | ATGCACAA | 0.187
98 | TCGGCGAA | -0.111
99 | GCTTGCCA | -0.216
100 | AGCGCGCT | -0.0914

Row | Sequence | PBM 8-mer E-score
101 | AGGTATTA | 0.264
102 | ACTACTAG | 0.0778
103 | CTACCGCA | -0.134
104 | AAGAGGTG | -0.164
105 | CATAATCG | 0.141
106 | ATTAAGTC | 0.28
107 | CTGAAGTC | -0.114
108 | ACTCTAAA | 0.132
109 | TTCCTAAA | 0.116
110 | GCATCACC | -0.246
111 | GGTGACAA | 0.0559
112 | CTGAACGC | -0.144
113 | CAATACGC | -0.0528
114 | CCGGCCGG | -0.304
115 | AGAAGTCC | 0.00936
116 | CCCGGCAA | -0.11
117 | GCCCTGCC | -0.363
118 | AGGTGAGG | -0.23
119 | CAGGATGG | -0.189
120 | TAGCGATA | 0.0958
121 | AGGCGAAA | -0.177
122 | CGGAGAGA | -0.145
123 | AACCATGA | 0.0535
124 | CAGGTTAC | -0.0018
125 | AATGCATT | 0.28

Row | Sequence | PBM 8-mer E-score
126 | ATCCAACG | -0.0255
127 | ACACACTA | 0.245
128 | GACGGGAC | -0.0757
129 | GAATCCAA | -0.0958
130 | AAGGAAAC | -0.0856
131 | ACCCAGTG | -0.016
132 | CGCGCTCA | -0.16
133 | ATACGACC | -0.0941
134 | AAGCGAAC | -0.0929
135 | CGCCAGGA | -0.211
136 | AGCGACGG | -0.116
137 | ACGAGCAG | -0.147
138 | AAATCATA | 0.267
139 | CTGGGCTA | -0.153
140 | CTATTTCA | 0.00869
141 | CACCGGAC | -0.199
142 | ACCGTCGT | -0.051
143 | CATCTTCC | -0.00584
144 | ACATTGGC | -0.124
145 | GTCGGTTA | 0.129
146 | CGGGCGAA | -0.119
147 | GGGCGAAC | -0.0666
148 | AAGGGTCA | -0.0925
149 | ATCTTCTA | 0.195
150 | GCATTCCC | -0.185

Row | Sequence | PBM 8-mer E-score
151 | TACCTCAA | 0.05
152 | ACGGAAGC | -0.158
153 | CACCCTGC | -0.106
154 | TTGTGAAA | 0.136
155 | ACATGATC | -0.155
156 | AAGGTTTA | 0.193
157 | CGCCAGCG | -0.0941
158 | GACCAACC | -0.0441
159 | AAAGCAGA | 0.014
160 | CAAGAGGA | -0.0736
161 | ACATACCC | 0.025
162 | GCAAAGGA | -0.132
163 | ATCAACTA | 0.201
164 | ATATTCCC | 0.225
165 | GAATTGCC | 0.106
166 | CGATTTAA | 0.238
167 | CATTAAAC | 0.334
168 | CTGTAACC | 0.00617
169 | CAGGGATG | -0.221
170 | AGTGGACC | -0.0337
171 | AATGGGGC | -0.1
172 | ATGTCCGA | -0.0808
